PubChem BioAssay AID624417 (National Center for Advancing Translational Sciences (NCATS), 2012)
Among all 410,000 compounds or so, about 6,400 (1.6%) were called active. The inconclusive results got no clear call from the source; some entries with a clear call stand among them for comparison. Calls follow the shape of the dose curve; as a rule, active = well fitted inhibition curve with a large enough effect; inconclusive = small, poorly fitted or top-dose-only effect; inactive = no such curve, though single readings can be large or run the other way. Where the call is inconclusive, the potency comes from a doubtful curve fit.

Target: Glucagon-like peptide 1 receptor (Homo sapiens) (UniProt P43220)
Chain of UniProt P43220 (P43220 whole entry, looked up): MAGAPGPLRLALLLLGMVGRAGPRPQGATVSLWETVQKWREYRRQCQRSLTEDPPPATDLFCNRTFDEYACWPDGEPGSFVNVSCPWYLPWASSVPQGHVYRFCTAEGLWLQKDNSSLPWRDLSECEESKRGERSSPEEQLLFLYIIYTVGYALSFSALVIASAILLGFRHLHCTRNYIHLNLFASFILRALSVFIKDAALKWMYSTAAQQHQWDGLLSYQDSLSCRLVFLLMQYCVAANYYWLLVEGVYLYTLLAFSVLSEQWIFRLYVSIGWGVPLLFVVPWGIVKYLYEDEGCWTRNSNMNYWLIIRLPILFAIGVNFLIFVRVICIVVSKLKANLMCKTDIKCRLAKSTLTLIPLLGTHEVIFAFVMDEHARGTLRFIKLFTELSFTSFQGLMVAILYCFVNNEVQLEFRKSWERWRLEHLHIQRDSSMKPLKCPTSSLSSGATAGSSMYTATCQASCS
Experiment: qHTS of GLP-1 Receptor Inverse Agonists (Inhibition Mode); also: nearly all actives have a fitted effect of over 55% in size
Details: HEK293 GLP-1R CRE-luciferase, luminescence, 24 h, GLP-1R form is constitutively active; activity change, negative = inhibition: at 38.3 µM (top of the series) unless noted
Method in brief: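 HEK293 cells stably co-expressing constitutively active GLP-1R and a cAMP-responsive luciferase reporter were seeded in DMEM with 10% Nu serum, given compounds after 12 h, and incubated 24 h at 37 deg C. Luminescence was then read.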
% is scaled to controls: 0 for no effect and ±100 for the full control effect; potency is read from the fitted curve at half-maximal effect; tags tell the direction and shape of the fitted curve.

Potency, active:
Cc1cc(C)nc(N/N=C/c2ccccc2OCc2cccc(Br)c2)n1 3.55 µM
N#CC(C#N)=Cc1cn(-c2ncc(C(F)(F)F)cc2Cl)c2ccccc12 7.94 µM
CC(C)C[C@@H](CN1CCCC1CN1C(=S)NC[C@@H]1Cc1ccc(O)cc1)N1C[C@H](Cc2ccc(O)cc2)N(CC2CCCCC2)C1=S (some centres not stated) 11.2 µM

Potency, inconclusive:
Cc1ccc(C(=C2C3C=CC2C2C(=O)NC(=O)C32)c2ccc(C)cc2)cc1 (configuration not stated) 28.2 µM [inhibitor, single point]
Cc1ccc(NC(=O)Nc2ccc(Cl)cc2)c(Br)c1 7.94 µM [inhibitor, partial curve, poor fit]
CCN=c1scc(-c2ccc(F)cc2)n1/N=C/c1ccccn1 8.91 µM [inhibitor, single point]
Cc1cc(F)ccc1C(O)c1ncc(-c2ccccc2Cl)[nH]1 (configuration not stated) 28.2 µM [inhibitor, single point]
CC(C)(C)c1csc(NC(=O)c2cccs2)n1 11.2 µM [inhibitor, partial curve, poor fit]
CCC(C(=O)Nc1ccccc1C(=O)OC)n1c(C)c2cnn(-c3ccccc3)c(=O)c2c1C (configuration not stated) 17.8 µM [inhibitor, single point]
CCOC(=O)C1=C(CN2CC(C)CC(C)C2)NC(=O)NC1c1ccc2c(c1)OCO2 (configuration not stated) 12.6 µM [inhibitor, single point]
CCc1nnc(NC(=O)c2nc(S(=O)(=O)Cc3cccc(C)c3)ncc2Cl)s1 28.2 µM [inhibitor, single point]
Cc1ccc2nc(NC(=O)CCCC(=O)O)sc2c1 1.78 µM [inhibitor, full curve]
OC(c1ccccc1)c1ncc(-c2ccc(Cl)cc2)[nH]1 (configuration not stated) 31.6 µM [inhibitor, single point]
OC1(c2ccccc2)CCN(Cc2ccccc2)C2CCCCC21 (configuration not stated) 14.1 µM [inhibitor, single point]
Cn1c(CN2CCCCC2)nc2cc(NC(=O)c3cccc(Br)c3)ccc21 7.08 µM [inhibitor, partial curve, poor fit]
COc1cccc(CCOC(=O)c2c(-c3ccsc3)oc3c2C(OC(C)=O)CCC3)c1 (configuration not stated) 11.2 µM [inhibitor, partial curve, poor fit]
CCCCCN(C(=O)CCC(=O)OCc1ccc(C(C)(C)C)cc1)c1c(N)n(CCCC)c(=O)[nH]c1=O 28.2 µM [inhibitor, single point]
O=C(OCc1cccc2ccccc12)C1CC(=O)N(c2ccccc2)C1 (configuration not stated) 28.2 µM [inhibitor, single point]
COC(=O)[C@@]12C[C@@H](CC(=O)N3CCOCC3)C(=O)N(Cc3cccc4ccccc34)C1=CCC(C)(C)C2 28.2 µM [inhibitor, single point]
CCCn1c(SCc2nc(-c3ccccc3C)no2)nnc1-c1ccc(Cl)cc1 11.2 µM [inhibitor, partial curve, poor fit]
Cn1c(SSc2ccc(-c3cccnc3)n2C)ccc1-c1cccnc1 11.2 µM [inhibitor, partial curve]
CC1CCC2C(C1)c1sc(=O)[nH]c1SC2(C)C (configuration not stated) 28.2 µM [inhibitor, single point]
COc1ccc(N=C(N)SCc2ccccn2)cc1 12.6 µM [inhibitor, partial curve, poor fit]
Cc1ccc(NC(=O)CN2CCC3(O)CCCCC3C2c2ccc3c(c2)OCO3)c(C)c1 (configuration not stated) 28.2 µM [inhibitor, single point]
COC(=O)Nc1ccc(S(=O)(=O)N2CCCc3cccc(O)c32)cc1 10 µM [inhibitor, partial curve, poor fit]
Cc1ccc(/C=C/c2onc(C)c2S(=O)(=O)N2CCC(C(=O)NC(C)(C)C)CC2)cc1 12.6 µM [inhibitor, partial curve, poor fit]
O=C(N/N=C/c1cccc(Oc2ccccc2)c1)c1ccc(O)cc1O 10 µM [inhibitor, partial curve, poor fit]
Cc1ccc(-c2cc(-c3ccc(C)cc3O)[nH]n2)cc1 28.2 µM [inhibitor, single point]
COc1ccc(S(=O)(=O)N2CCCCCC2)cc1C(=O)N1CCN(c2ccc(F)cc2)CC1 28.2 µM [inhibitor, single point]
O=C(NCc1ccco1)c1cc2n(n1)C(C(F)(F)F)CC(c1ccc(Cl)c(Cl)c1)N2 (configuration not stated) 1 µM [inhibitor, full curve, poor fit]
C=CCN1C(=O)c2ccccc2NC1c1ccc(Br)s1 (configuration not stated) 12.6 µM [inhibitor, single point]
O=C(NN=Cc1ccc(O)cc1O)c1ccccc1NS(=O)(=O)c1cccs1 22.4 µM [inhibitor, single point]
Cc1ccsc1CN(C)C(=O)CN1C(=O)NC(c2ccccc2)(c2ccccc2)C1=O 31.6 µM [inhibitor, single point]
CCCCCC(=O)N1CC2(CC(c3cccc(NC(=O)CC(c4ccccc4)c4ccccc4)c3)=NO2)C[C@@H]1C(N)=O (some centres not stated) 31.6 µM [inhibitor, partial curve, poor fit]
Cc1cc(S(=O)(=O)Nc2cccc(Cl)c2)c(C)s1 11.2 µM [inhibitor, single point]
Cc1ccc2cccc(Oc3nnnn3-c3ccccc3)c2n1 28.2 µM [inhibitor, single point]
CC1=C/C(=N\OS(=O)(=O)c2ccccc2)C(C)=CC1=O 3.98 µM [inhibitor, full curve, poor fit]
CC(C)(C)n1cnc2cc(NC(=O)c3cccs3)ccc21 11.2 µM [inhibitor, partial curve, poor fit]
CCOc1ccc(NC(=O)CC2C(=O)N(c3ccccc3)C(=O)N2CCc2ccc(OC)cc2)cc1 (configuration not stated) 11.2 µM [inhibitor, partial curve]
CCc1ccc(N2CC(C(=O)Nc3ccc4c(c3)OCCO4)CC2=O)cc1 (configuration not stated) 28.2 µM [inhibitor, single point]
Cc1cccc(S(=O)(=O)NC2CCCCCCC2)c1 12.6 µM [inhibitor, single point]
OC(CNCC1(N2CCCCC2)CCCCC1)COc1ccc(Cl)cc1Cl (configuration not stated) 11.2 µM [inhibitor, partial curve, poor fit]
CC(C)Oc1cccc(C(=O)Nc2ccc(N3CCN(C)CC3)cc2)c1 7.08 µM [inhibitor, partial curve, poor fit]
CC(C)(C)c1ccc(C2Sc3ccccc3NC3=C2C(=O)c2ccccc23)cc1 (configuration not stated) 12.6 µM [inhibitor, partial curve, poor fit]
O=C(c1cc(F)ccc1F)C1CCCN(C(=O)c2cccs2)C1 (configuration not stated) 5.01 µM [inhibitor, full curve, poor fit]
C[C@@H]1CN([C@@H](C)CO)C(=O)c2cc(C#Cc3cccc(F)c3)cnc2O[C@@H]1CN(C)CC1CCOCC1 11.2 µM [inhibitor, single point]
Cc1cc(OCC(=O)Nc2ccc(S(=O)(=O)N3CCN(C)CC3)cc2)cc(C)c1Cl 31.6 µM [inhibitor, single point]
Cc1cccc2sc(N(CCCN(C)C)C(=O)c3cc4ccccc4oc3=O)nc12 28.2 µM [inhibitor, single point]
COc1cc(/C=N/NC(=O)c2ccccn2)ccc1OC(=O)c1ccccc1Br 12.6 µM [inhibitor, partial curve, poor fit]
COc1ccccc1C(CNC(=O)CN1C(=O)NC(C)(c2ccc3ccccc3c2)C1=O)N1CCCC1 (configuration not stated) 28.2 µM [inhibitor, single point]

Activity change, negative = inhibition, inactive:
CCn1cc(C(=O)NCCCOC(C)C)c(=O)c2cc(S(=O)(=O)N3CCc4ccccc4C3)ccc21 1.62%
Cc1ccccc1C1CC(=O)Oc2cc(O)ccc21 (configuration not stated) 14.7%
O=[N+]([O-])c1ccc2oc(-c3ccccc3)nc2c1 10%
COc1ccc(N2C(=O)CSC23C(=O)N(CC(=O)NC2CCCCC2)c2ccccc23)cc1 (configuration not stated) -11.6%
CCc1nn(CC(=O)N2CCN(c3cccc(C)c3C)CC2)c(=O)c2cc3occc3n12 16.4%
Cc1ccc(S(=O)(=O)N2CCC[C@H]2C(=O)OCc2nc3ccccc3s2)cc1 -14.2%
Cc1ccc(NC(=O)Cn2nc(C)c3nn(-c4ccc(Cl)cc4)c(C)c3c2=O)cc1C 2.84%
O=C1c2oc3ccccc3c(=O)c2C(c2ccc(Br)cc2)N1c1ccccn1 (configuration not stated) 1.85%
COc1ccc(CCNC(=O)CCn2c(=O)c3ccccc3n(CC(=O)Nc3ccccc3F)c2=O)cc1OC 23.9%
O=c1c(Br)c(N2CCOCC2)cnn1-c1ccccc1 1.11%
Cc1ccc2c(=O)c(C(=O)c3ccccc3)cn(CC(=O)Nc3ccc4c(c3)OCCO4)c2n1 7.53%

Activity change, negative = inhibition, inconclusive:
O=C(Nc1ccc(C(=O)c2ccccc2)cc1)c1ccccc1 -58.1% [inhibitor]
